Laboratory results as given in publication PMC6201879, “N-substituted phenylbenzamides of the niclosamide chemotype attenuate obesity related changes in high fat diet fed mice” (PLoS ONE, 2018).

Legend:
[1] = system: C57BL6 diet induce obesity (DIO) mice; experiment: Liver morphology and histological scoring of hepatic steatosis in HFD-fed mice; conditions: for steatosis score / mean percentage of steatosis: 10mg/kg I.P daily for 12 days; for steatosis score: grades ≤ 5%:0, 5–33%:1, 33–66%:2, 66–100%:3, sham 3.0
[2] = system: C57BL6 diet induce obesity (DIO) mice; experiment: Greasy (oily) coat phenotype scoring in HFD-fed mice; assay type: in vivo, mouse; conditions: treated animals
Source text: In addition to changes in hepatic steatosis, we regularly observed that the coats of treated animals were drier, consistent with reduction in triglycerides, as has been observed in the DGAT1 mouse knockout with dry coat (Fig 8D and 8E). Animals were scored with regards to their oily coat phenotype with +++ representing an oily coat and ++ and + progressively drier phenotype.

[3] = system: C57BL6 diet induce obesity (DIO) mice; experiment: Automated quantitative histomorphometric steatosis scoring of liver sections; assay type: in vivo, mouse; conditions: day 6, sham = 1.0
Source text: We then used an Aperio ScanScope slide scanner to scan H&E stained slides for image analysis and quantification of macrovesicular and microvesicular steatosis. […] This quantitative analysis can be used along-side comprehensive manual histological scoring to measure changes in the steatotic phenotype including changes in macrosteatosis and microsteatosis, lipid droplet size, zonal lipid distribution, and lipid droplet count.

| SMILES | steatosis score ([1]; HFD-fed mice) | coat appearance (oily coat phenotype) [2] | pattern of steatosis ([1]; 60%-fat fed DIO mice, 12 days of treatment) | mean percentage of steatosis ([1]; HFD-fed mice) [%] | steatosis score, standard histological scoring, time-course ([1]; HFD-fed mice, 10 or 25mg/kg IP, day 0, 3, 6 and 9) | steatotic phenotype score, automated image analysis ([3]; 10 mg/kg IP) | steatotic phenotype score, automated image analysis ([3]; 25mg/kg IP) |
| --- | --- | --- | --- | --- | --- | --- | --- |
| COC(=O)c1ccc(NC(=O)c2cc(C(F)(F)F)ccc2O)c(Br)c1 [Compound 600653, Methyl 4-(2-hydroxy-5-[trifluoromethyl]benzamido)-3-bromobenzoate] | 1.75 | – | – | – | – | – | – |
| COC(=O)c1ccc(NC(=O)c2cc(C(C)(C)C)ccc2O)c(Cl)c1 [Compound 500199, Methyl 4-[(5-tert-butyl-2-hydroxybenzene)amido]-3-chlorobenzoate] | 1 | changes in coat appearance | almost completely cleared of steatosis | 19 | time and dose dependent improvement in steatosis score | 0.57 ± 0.19 | 0.13 ± 0.17 |
| O=C(Nc1ccc([N+](=O)[O-])cc1Cl)c1cc(Cl)ccc1O [Niclosamide] | 2.0 | changes in coat appearance | – | 45 | – | – | – |
| COC(=O)c1ccc(NC(=O)c2cccc(C(C)(C)C)c2O)c(Cl)c1 [Compound 600489, Methyl 4-(3-tert-butyl-2-hydroxybenzamido)-3-chlorobenzoate] | 1.25 | – | – | 24 | – | – | – |
| CC(C)(C)c1ccc(O)c(C(=O)Nc2cc(C(=O)O)ccc2Cl)c1 [Compound 600494, 3-{[2-Hydroxy-5-(tert-butyl)benzene]amido}-4chloro-benzoic acid] | 1.25 | – | – | 25 | – | – | – |
| CC(C)(C)c1ccc(O)c(C(=O)Nc2ccc(C(=O)O)cc2Cl)c1 [Compound 500200, 4-[(5-tert-butyl-2-hydroxybenzene)amido]-3-chlorobenzoic acid] | 1.25 | – | – | 28 | – | – | – |
| CC(C)(C)c1ccc(O)c(C(=O)Nc2ccc(C(=O)O)cc2C(F)(F)F)c1 [Compound 500873, 4-[(5-tert-butyl-2-hydroxy)amido]-3-(trifluoromethyl)benzoic acid] | 1.25 | – | – | 28 | – | – | – |
| O=C(Nc1ccc(Br)cc1Cl)c1cc(Cl)ccc1O [Compound 500832, N-(4-Bromo-2-chlorophenyl)-5-chloro-2-hydroxybenzamide] | 2.75 | changes in coat appearance | – | – | – | – | – |
